Laboratory results from PubChem BioAssay AID938 (National Center for Advancing Translational Sciences (NCATS), 2007).
Values joined by “and” are separate entries in the source; they are usually repeats but may differ in a detail not shown here. Identical values can stand only once. In all, about 73,000 compounds went through this assay and about 1,800 (2.5%) were called active. This list was built around the results that the source calls inconclusive (neither active nor inactive); the mix of calls is not that of the screen. The call rests on the fitted dose curve; in most records, active means well fitted activation curve with a large enough effect; inconclusive means small, poorly fitted or top-dose-only effect; inactive means no such curve, though single readings can be large or run the other way. No potency is given beside an inconclusive call; the fits are too rough.

Assay: qHTS Assay for Agonists of the Thyroid Stimulating Hormone Receptor: Activators of Intracellular cAMP Concentrations in Parental HEK 293; further: nearly all actives have a fitted effect of over 55% in size; on activation: % of control where 0% means no effect
Details: parental HEK293 CNG cAMP sensor, membrane potential fluorescence; activation: at 57.1 µM (top of the series) unless noted
How it was run: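 Parental HEK 293 cells stably expressing a modified CNG channel (no TSHR) report cAMP rise as membrane depolarization. Membrane potential dye with 100 uM RO 20-1724 was loaded for 60 min at room temperature, then compound added for 30 min; fluorescence read at 590 nm.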
Potency means the concentration at half of the fitted maximal effect; tags describe the fitted curve by direction and shape.

Q: For `CC[C@H](NC(C)C)[C@H](O)c1ccc(O)c(O)c1`, which Potency is on record?
A: Its Potency is active: 794 nM and active: 251 nM.

Q: For `CCCCNC(=O)COC(=O)c1cc2c(C)nn(-c3ccccc3)c2s1`, which Potency is on record?
A: The Potency was inconclusive [activator, partial curve].

Q: With `C[C@@]1(C(NC(=O)Cc2ccc(C(F)(F)F)cc2)c2ccc(-c3ccccc3)cc2)C[C@H]1C1CCCCC1` (stereo not given in full) as the compound, how does the “activation” value read?
A: The value was inactive: 7.04%.

Q: For `CCN(CC)C(=O)c1cccc(C)c1`, which activation is on record?
A: The activation was inconclusive: 30.5% [activator].

Q: With `COC(=O)[C@@]1(Cc2ccc(F)cc2)[C@H]2c3cc(C(=O)N(C)C)n(Cc4ccc(O)c(OC)c4)c3C[C@H]2CN1C(=O)c1ccccc1` as the compound, how does the Potency read?
A: The Potency was inconclusive [activator, partial curve].

Q: With `COc1ccc(C2N(C(=O)c3ccccc3)CCN2C(=O)c2ccccc2)cc1` as the compound, how does the Potency read?
A: Its Potency is inconclusive [activator, partial curve].

Q: For `Cc1ccc(C2(c3ccc(C)cc3)NC(=O)N(Cc3c(C)noc3C)C2=O)cc1`, which Potency is on record?
A: Its Potency is inconclusive [activator, single point].

Q: With `Cc1cc(O)c(C(C)(C)C)cc1Sc1cc(C(C)(C)C)c(O)cc1C` as the compound, how does the Potency read?
A: Its Potency is inconclusive [activator, single point].

Q: Which Potency does the source give for `O=c1[nH]c(=S)[nH]c(-c2ccccc2)c1Cc1c(O)ccc2ccccc12` here?
A: The Potency was active: 2.51 µM.

Q: Which Potency does the source give for `c1cncc(-c2cncnc2-n2ccnc2)c1` here?
A: The Potency was inconclusive [activator, single point].

Q: For `CCC(=O)NC(=Nc1nc2ccccc2s1)NC(=O)CC`, which Potency is on record?
A: The Potency was inconclusive [activator, partial curve].

Q: For `CCCn1c(SCc2cc(=O)oc3ccc4ccccc4c23)n[nH]c1=O`, which Potency is on record?
A: Its Potency is inconclusive [activator, partial curve].

Q: Which Potency does the source give for `O=C(CCCc1nc2ccccc2s1)N1CCN(S(=O)(=O)c2cccs2)CC1` here?
A: The Potency was inconclusive [activator, single point].

Q: For `COc1ncc2nc(-c3cccs3)c(=O)n(-c3ccccc3)c2n1`, which “activation” value is on record?
A: Its value is inactive: 5.64%.

Q: With `COc1ccc(CNc2ccnc(-c3ccccc3Cl)n2)c(OC)c1` as the compound, how does the Potency read?
A: Its Potency is active: 10 µM.

Q: With `CCOc1ccc(NC2=NC(C)(C)N=C(N)N2)cc1` as the compound, how does the Potency read?
A: Its Potency is inconclusive [activator, single point].

Q: For `Cc1cc(Br)ccc1NC(=O)CNC(=O)CN(C)Cc1nc2ccccc2c(=O)[nH]1`, which Potency is on record?
A: Its Potency is inconclusive [activator, single point].

Q: With `CC(C)CNC(=O)COc1ccc2c3c(c(=O)oc2c1)CCC3` as the compound, how does the “activation” value read?
A: Its value is inactive: 5.92%.

Q: With `COc1cccc(C(=O)Nc2nc(-c3ccc(S(=O)(=O)N4CCOCC4)cc3)cs2)c1` as the compound, how does the Potency read?
A: Its Potency is inconclusive [activator, partial curve].

Q: For `Cc1ccc(-c2nnn(Cc3nc4ccccc4s3)n2)cc1`, which Potency is on record?
A: The Potency was inconclusive [activator, partial curve].

Q: With `COc1ccccc1C(=O)Nc1ccccc1SC` as the compound, how does the Potency read?
A: Its Potency is inconclusive [activator, partial curve, poor fit].

Q: With `Cc1nc(NC2CCCCC2)c2nc(-c3ccccc3)n(CC3CCN(C)CC3)c2n1` as the compound, how does the Potency read?
A: Its Potency is inconclusive [activator, partial curve, poor fit].

Q: With `CCn1c(C(=O)N2CCCC(C(=O)NCCc3ccc(C)cc3)C2)cc2sccc21` (stereo not given) as the compound, how does the Potency read?
A: The Potency was inconclusive [activator, partial curve].

Q: Which Potency does the source give for `CCCn1c(=O)c2ccccc2n2c(SCCOc3ccc(Cl)cc3)nnc12` here?
A: Its Potency is active: 25.1 µM.

Q: With `CCOC(=O)c1c(N)sc(C(N)=O)c1C` as the compound, how does the “activation” value read?
A: Its value is inactive: 3.18%.

Q: For `CCC(Oc1ccccc1)C(=O)Nc1nnc(C(F)(F)F)s1` (stereo not given), which Potency is on record?
A: The Potency was inconclusive [activator, single point].

Q: Which “activation” value does the source give for `COc1ccc2nc(SCC(=O)N3CCCCCC3)c(C#N)cc2c1` here?
A: Its value is inactive: 23.9%.

Q: With `COc1ccc2c3c(cccc13)NN=C2C` as the compound, how does the “activation” value read?
A: Its value is inactive: -20.8%.

Q: Which Potency does the source give for `Cc1ccc(CNC(=O)[C@H](C)[C@H]2C[C@]2(C)[C@H](NC(=O)OCc2ccccc2)c2ccccc2)o1` here?
A: Its Potency is inconclusive [activator, partial curve].

Q: For `CN1CC[C@H](CN2c3ccccc3Sc3ccccc32)C1`, which activation is on record?
A: Its activation is inactive: -12.5% [at 11.4 µM].

Q: For `Cc1c(C2CCN(CCc3ccccc3)CC2)noc1-c1ccc(Cl)cc1`, which “activation” value is on record?
A: The value was inactive: -30.4%.

Q: Which Potency does the source give for `CCCCN(C)CCCNC(=O)CS(=O)Cc1nc(-c2ccc(OC)c(OC)c2)oc1C` (stereo not given) here?
A: Its Potency is inconclusive [activator, single point].

Q: Which “activation” value does the source give for `CCN1CC=C2C(C#N)=C(N)C(C#N)(C#N)C(CCc3ccccc3)C2C1` (stereo not given) here?
A: The value was inactive: -10.2%.

Q: For `Brc1ccccc1-c1nnc(COc2ncnc3c2cnn3-c2ccccc2)o1`, which Potency is on record?
A: Its Potency is active: 25.1 µM.

Q: For `O=C(CSc1nnc(-c2ccccc2F)o1)OCc1ccccc1`, which Potency is on record?
A: The Potency was inconclusive [activator, single point].

Q: For `Cc1c(N(C(=O)c2cc(=O)[nH]c3ccccc23)C(C)C)c(=O)n(-c2ccccc2)n1C`, which “activation” value is on record?
A: Its value is inactive: 2.46%.

Q: With `N#Cc1nc(Cc2cccc3ccccc23)oc1NCCCN1CCOCC1` as the compound, how does the “activation” value read?
A: The value was inactive: 4.25%.

Q: Which activation does the source give for `CCN1C(C)=C(C(=O)OC)C(c2ccccc2)N2C(=O)[C@](O)(C(=O)OC)C(c3ccccc3)C(C(C)=O)=C12` (stereo not given in full) here?
A: The activation was inactive: 7.19% [at 11.4 µM].

Q: For `COc1ccc(C(=O)CSc2nnc(-c3ccccn3)n2Cc2ccco2)cc1`, which Potency is on record?
A: Its Potency is inconclusive [activator, partial curve].

Q: For `COCC(=O)O`, which activation is on record?
A: Its activation is inconclusive: 52.1% [activator].

Q: With `CCCCOCC1CN(c2ccccc2)C(=O)CS1` (stereo not given) as the compound, how does the Potency read?
A: The Potency was inconclusive [activator, single point].

Q: With `COc1ccc2c(c1)C1(Nc3ccccc3-c3nc4ccccc4n31)C(=O)N2C` (stereo not given) as the compound, how does the Potency read?
A: The Potency was inconclusive [activator, partial curve].

Q: Which Potency does the source give for `CCSc1oc(-c2ccccc2)nc1S(=O)(=O)c1ccccc1` here?
A: The Potency was inconclusive [activator, partial curve].

Q: Which Potency does the source give for `CCN(C(=O)c1coc(=O)c2ccccc12)c1cc(OC)ccc1OC` here?
A: The Potency was inconclusive [activator, single point].

Q: Which Potency does the source give for `Cc1ccc(C(C)C)c(OCC(O)CN2CC(C)OC(C)C2)c1` (stereo not given) here?
A: Its Potency is inconclusive [activator, full curve].

Q: Which Potency does the source give for `Cc1ccc(S(=O)(=O)Cc2ccc(C(=O)N3CCN(c4cc(C)ccc4C)CC3)o2)cc1` here?
A: Its Potency is inconclusive [activator, full curve].

Q: Which Potency does the source give for `NCCCCCCNS(=O)(=O)c1cccc2c(Cl)cccc12` here?
A: Its Potency is inconclusive [activator, single point].

Q: With `CCCOc1ccc2oc(=O)c3c(c2c1)CCCN3C(=O)CN1CCN(c2ncccn2)CC1` as the compound, how does the Potency read?
A: Its Potency is inconclusive [activator, single point].

Q: Which Potency does the source give for `Cc1cccc(N2CCN(C3=NC(=O)C(=C4CCCCC4)S3)CC2)c1` here?
A: The Potency was inconclusive [activator, single point].

Q: For `CCn1c(SCc2nc(CC(=O)Nc3ccccc3OC)no2)nnc1-c1cccs1`, which Potency is on record?
A: The Potency was inconclusive [activator, partial curve].

Q: With `COC(=O)c1ccc(C(NC(=O)OCc2ccccc2)/C(I)=C/[C@@H](C)C(=O)NCc2ccc(OC)c(O)c2)cc1` (stereo not given in full) as the compound, how does the “activation” value read?
A: The value was inactive: 23.4%.

Q: For `Cc1ccc2c(c1)N(CC(=O)N1CCN(c3nc4ccccc4s3)CC1)C(=O)C(C)O2` (stereo not given), which Potency is on record?
A: The Potency was active: 6.31 µM.

Q: With `CCc1ccc(NS(=O)(=O)c2ccc3[nH]cc(C(=O)NCC4CCCO4)c(=O)c3c2)cc1` (stereo not given) as the compound, how does the “activation” value read?
A: The value was inactive: -3.73%.

Q: For `COc1ccc(C(c2nnnn2Cc2cccs2)N2CCN(c3ccc(F)cc3)CC2)cc1OC` (stereo not given), which Potency is on record?
A: The Potency was inconclusive [activator, partial curve].

Q: Which Potency does the source give for `O=C(c1ccccc1)n1ccc2ccccc21` here?
A: The Potency was inconclusive [activator, single point].

Q: For `O=c1[nH]c2ccsc2c(=O)n1-c1ccc(F)cc1`, which Potency is on record?
A: The Potency was inconclusive [activator, single point].

Q: Which activation does the source give for `O=C1C2=CC[C@H]3C(=O)N(Cc4ccccc4)C(=O)[C@@H]3[C@@H]2[C@H](O)[C@@H]2O[C@H]12` here?
A: The activation was inactive: 7.21% [at 11.4 µM].

Q: For `Cc1c(C(=O)O)[nH]c2c1C(=O)CC(c1ccccc1)C2` (stereo not given), which Potency is on record?
A: Its Potency is inconclusive [activator, single point].

Q: Which Potency does the source give for `COC(=O)c1c(-c2ccc(C)cc2)csc1N` here?
A: The Potency was inconclusive [activator, partial curve].

Q: Which Potency does the source give for `COc1ccccc1C(=O)NCCn1cc(SCC(=O)Nc2cc(C)on2)c2ccccc21` here?
A: Its Potency is inconclusive [activator, full curve, poor fit].

Q: Which Potency does the source give for `Cn1c(SC/C=C/c2ccccc2)nnc1-c1cccs1` here?
A: The Potency was inconclusive [activator, partial curve].

Q: Which “activation” value does the source give for `CN(C(=O)CSc1nnnn1-c1ccccc1)C1CCCCC1` here?
A: Its value is inactive: 20.6%.

Q: With `COc1ccc(C2CC(c3ccccc3C)n3nc(N)nc3N2)cc1` (stereo not given) as the compound, how does the Potency read?
A: The Potency was inconclusive [activator, single point].

Q: With `Cc1nnc(NC(=O)C2(c3ccccc3)CCOCC2)s1` as the compound, how does the Potency read?
A: The Potency was inconclusive [activator, partial curve].

Q: Which Potency does the source give for `CCOc1ccc(NC(=O)CSc2nnc(-c3ccccc3Cl)n2Cc2ccco2)cc1` here?
A: The Potency was inconclusive [activator, partial curve].

Q: For `O=C(CC1Nc2ccccc2NC1=O)NCc1cccnc1` (stereo not given), which “activation” value is on record?
A: The value was inactive: 14.3%.

Q: With `O=c1c2ccccc2c(C=Nc2ccc(Cl)cn2)c(O)n1-c1cc(Cl)ccc1N1CCOCC1` as the compound, how does the “activation” value read?
A: Its value is inactive: 11.1%.

Q: Which “activation” value does the source give for `COC(=O)N1[C@H](C)C=C[C@]1(Cc1ccccc1)C(=O)NCc1ccccn1` here?
A: The value was inactive: 18.1%.

Q: Which Potency does the source give for `Cn1c(C(=O)N(Cc2ccccc2)Cc2cccs2)cc2sccc21` here?
A: Its Potency is active: 15.8 µM.

Q: Which Potency does the source give for `COC(=O)C1=C(N)Oc2cc(C)n(Cc3ccco3)c(=O)c2C1c1cccc(Cl)c1` (stereo not given) here?
A: Its Potency is inconclusive [activator, partial curve].
